Assay results taken from paper PMC1540706.
No constants are given. Whether binding was seen depends on the method and setting. Binding seen in cells or lysates may run through a third protein. Some binding calls cover weakened binding; strength is not graded here. For some assays here: Sequences can lack the tags named with a protein.

Protein sequences, listed by entry. Tags and fused reporters are not part of them. Residues count along the entry.
UniProt P49951, residues 1-363: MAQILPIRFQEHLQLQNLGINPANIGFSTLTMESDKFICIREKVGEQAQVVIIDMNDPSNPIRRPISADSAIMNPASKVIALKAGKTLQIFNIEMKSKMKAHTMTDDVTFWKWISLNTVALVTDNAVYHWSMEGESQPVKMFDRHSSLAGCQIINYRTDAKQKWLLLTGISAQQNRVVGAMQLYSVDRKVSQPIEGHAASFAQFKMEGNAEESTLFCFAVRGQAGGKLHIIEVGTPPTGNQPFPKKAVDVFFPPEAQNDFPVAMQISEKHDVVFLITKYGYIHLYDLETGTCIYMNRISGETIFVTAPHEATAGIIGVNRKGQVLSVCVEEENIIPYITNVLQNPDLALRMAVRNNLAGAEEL

T1: GST-mouse-β1-appendage+hinge (512–943) (mouse) (UniProt O35643)
T1 sequence: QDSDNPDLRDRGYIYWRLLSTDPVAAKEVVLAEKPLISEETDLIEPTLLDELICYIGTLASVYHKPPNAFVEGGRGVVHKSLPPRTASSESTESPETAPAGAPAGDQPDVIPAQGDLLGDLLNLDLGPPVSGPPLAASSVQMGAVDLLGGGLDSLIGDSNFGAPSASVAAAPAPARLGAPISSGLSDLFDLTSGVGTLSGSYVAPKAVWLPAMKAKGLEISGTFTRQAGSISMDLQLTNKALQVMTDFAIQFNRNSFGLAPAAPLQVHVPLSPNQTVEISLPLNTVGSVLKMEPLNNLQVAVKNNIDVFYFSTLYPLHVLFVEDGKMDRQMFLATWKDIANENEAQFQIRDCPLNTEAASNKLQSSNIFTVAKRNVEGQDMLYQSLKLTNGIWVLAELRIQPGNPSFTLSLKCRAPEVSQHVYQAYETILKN


Legend:
[1] = target: GST-human-β2-appendage (700–937) (human) (UniProt P63010); test: pull-down; Western blotting of β-appendage pull-downs for Dab2, unpublished data; extract not stated; only the target purified
[2] = target: GST bovine clathrin terminal domain residues 1–363 (bovine) (UniProt P49951); test: pull-down; GST fusion protein on beads in (rat) brain extract; bound proteins detected by Western blotting (Figures 2B, 5E, 6A-D); only the target purified
[3] = target: GST-human-β2-appendage (700–937) (human) (UniProt P63010); test: as above
[4] = target: GST-human-β2-appendage (700–937) K808E (human) (UniProt P63010); test: as above
[5] = target: GST-human-β2-appendage (700–937) K842E (human) (UniProt P63010); test: as above
[6] = target: GST-human-β2-appendage (700–937) Y888V (human) (UniProt P63010); test: as above
[7] = target: GST-human-β2-appendage+hinge (616–937) (human) (UniProt P63010); test: as above
[8] = target: T1, GST-mouse-β1-appendage+hinge (512–943) (mouse); test: as above

Binder | binding [1] | binding [2] | binding [3] | binding [4] | binding [5] | binding [6] | binding [7] | binding [8]
Dab2/Disabled2 (protein, UniProt P98082 1-770) MSNEVETSATNGQPDQQAAPKAPSKKEKKKGPEKTDEYLLARFKGDGVKYKAKLIGIDDVPDARGDKMSQDSMMKLKGMAAAGRSQGQHKQRIWVNISLSGIKIIDEKTGVIEHEHPVNKISFIARDVTDNRAFGYVCGGEGQHQFFAIKTGQQAEPLVVDLKDLFQVIYNVKKKEEEKKKIEEASKAVENGSEALMILDDQTNKLKSGVDQMDLFGDMSTPPDLNSPTESKDILLVDLNSEIDTNQNSLRENPFLTNGITSCSLPRPTPQASFLPENAFSANLNFFPTPNPDPFRDDPFTQPDQSTPSSFDSLKSPDQKKENSSSSSTPLSNGPLNGDVDYFGQQFDQISNRTGKQEAQAGPWPFSSSQTQPAVRTQNGVSEREQNGFSVKSSPNPFVGSPPKGLSIQNGVKQDLESSVQSSPHDSIAIIPPPQSTKPGRGRRTAKSSANDLLASDIFAPPVSEPSGQASPTGQPTALQPNPLDLFKTSAPAPVGPLVGLGGVTVTLPQAGPWNTASLVFNQSPSMAPGAMMGGQPSGFSQPVIFGTSPAVSGWNQPSPFAASTPPPVPVVWGPSASVAPNAWSTTSPLGNPFQSNIFPAPAVSTQPPSMHSSLLVTPPQPPPRAGPPKDISSDAFTALDPLGDKEIKDVKEMFKDFQLRQPPAVPARKGEQTSSGTLSAFASYFNSKVGIPQENADHDDFDANQLLNKINEPPKPAPRQVSLPVTKSTDNAFENPFFKDSFGSSQASVASSQPVSSEMYRDPFGNPFA | binds | – | – | – | – | – | – | –
amphiphysin (brain extract) (protein, UniProt O08838 1-683) MADIKTGIFAKNVQKRLNRAQEKVLQKLGKADETKDEQFEEYVQNFKRQEAEGTRLQRELRGYLAAIKGMQEASMKLTESLHEVYEPDWYGREDVKMVGEKCDVLWEDFHQKLVDGSLLTLDTYLGQFPDIKNRIAKRSRKLVDYDSARHHLEALQSSKRKDESRISKAEEEFQKAQKVFEEFNVDLQEELPSLWSRRVGFYVNTFKNVSSLEAKFHKEIAVLCHKLYEVMTKLGDQHADKAFSIQGAPSDSGPLRIAKTPSPPEEASPLPSPTASPNHTLAPASPAPVRPRSPSQTRKGPPVPPLPKVTPTKELQQENIINFFEDNFVPEINVTTPSQNEVLEVKKEETLLDLDFDPFKPDVTPAGSAAATHSPMSQTLPWDLWTTSTDLVQPASGGSFNDFTQPQDTSLFTMQTDQNMAETEQALPTEPQAEEPPTTAAAPTAGLDLGLEMEEPKEEAAIPPGTDAGETVGTEGSTGEEAEAEKAALPAGEGESPEGAKIDVESTELASSESPQAAELEAGAPQEKVIPSVVIEPASNHEGEEHQETTTGTETREATEDVAPQGPAGEKQELATEPTPLDSQAATPAPAGAVDASLSAGDAAQELPPGFLYKVETLHDFEAANSDELTLQRGDVVLVVPSDSEADQDAGWLVGVKESDWLQYRDLATYKGLFPENFTRHLE | – | no binding | binds | binds | binds | binds | binds | binds
AP180 (brain extract) (protein, UniProt Q05140 1-915) MSGQTLTDRIAAAQYSVTGSAVARAVCKATTHEVMGPKKKHLDYLIQATNETNVNIPQMADTLFERATNSSWVVVFKALVTTHHLMVHGNERFIQYLASRNTLFNLSNFLDKSGSHGYDMSTFIRRYSRYLNEKAFSYRQMAFDFARVKKGADGVMRTMVPEKLLKSMPILQGQIDALLEFDVHPNELTNGVINAAFMLLFKDLIKLFACYNDGVINLLEKFFEMKKGQCKDALEIYKRFLTRMTRVSEFLKVADEVGIDKGDIPDLTQAPSSLMETLEQHLNTLEGKKPGNNEGSGAPSPLSKSSPATTVTSPNSTPAKTIDTSPPVDIFATASAAAPVSSAKPSSDLLDLQPDFSGARAGAAAPVPPPTGGATAWGDLLGEDSLAALSSVPSEAPISDPFAPEPSPPTTTTEPASASASATTAVTAATTEVDLFGDAFAASPGEAPAASEGATAPATPAPVAAALDACSGNDPFAPSEGSAEAAPELDLFAMKPPETSAPVVTPTASTAPPVPATAPSPAPTAVAATAATTTAAAAATTTATTSAAAATTAAAPPALDIFGDLFDSAPEVAAASKPDVAPSIDLFGTDAFSSPPRGASPVPESSLTADLLSGSGFHCAEDDRHVPLFFTAVDAFAAPSPASTASPAKAESSGVIDLFGDAFGSSASETQPAPQAVSSSSASADLLAGFGGSFMAPSTTPVTPAQNNLLQPNFEAAFGTTPSTSSSSSFDPSGDLLMPTMAPSGQPAPVSMVPPSPAMSASKGLGSDLDSSLASLVGNLGISGTTSKKGDLQWNAGEKKLTGGANWQPKVTPATWSAGVPPQGTVPPTSSVPPGAGAPSVGQPGAGYGMPPAGTGMTMMPQQPVMFAQPMMRPPFGAAAVPGTQLSPSPTPATQSPKKPPAKDPLADLNIKDFL | – | no binding | binds | – | binds | binds | binds | binds
